Reference: PubChem BioAssay AID588342 (National Center for Advancing Translational Sciences (NCATS), 2011)
About 25,000 (6.9%) of roughly 360,000 compounds were called active. The inconclusive results got no clear call from the source; some entries with a clear call stand among them for comparison. Calls come from the whole dose curve; as a rule, active = well fitted inhibition curve with a large enough effect; inconclusive = small, poorly fitted or top-dose-only effect; inactive = flat fitted curve, though single readings scatter. A potency beside an inconclusive call is a rough fit, not a confirmed value.

Target: Luciferin 4-monooxygenase (Photinus pyralis) (UniProt P08659)
Assay: qHTS profiling assay for firefly luciferase inhibitor/activator using purifed enzyme and Km concentrations of substrates (counterscreen for miR-21 project); note: nearly all actives have a fitted effect of over 55% in size
Conditions: purified FLuc, luminescence inhibition; series mostly up to 57.5 µM
Summary of the method: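 Purified P. pyralis luciferase (10nM final) with 10uM D-luciferin and 10uM ATP (Km levels) in 50mM Tris acetate pH 7.5, 10mM Mg acetate, 0.01% Tween-20, 0.05% BSA; qHTS 6-point titration, ~60 µM downward; luminescence read.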
Potency is the fitted concentration of half-maximal effect; tags give direction and shape of the fitted curve.

Sequence of UniProt P08659 (P08659 whole entry, looked up): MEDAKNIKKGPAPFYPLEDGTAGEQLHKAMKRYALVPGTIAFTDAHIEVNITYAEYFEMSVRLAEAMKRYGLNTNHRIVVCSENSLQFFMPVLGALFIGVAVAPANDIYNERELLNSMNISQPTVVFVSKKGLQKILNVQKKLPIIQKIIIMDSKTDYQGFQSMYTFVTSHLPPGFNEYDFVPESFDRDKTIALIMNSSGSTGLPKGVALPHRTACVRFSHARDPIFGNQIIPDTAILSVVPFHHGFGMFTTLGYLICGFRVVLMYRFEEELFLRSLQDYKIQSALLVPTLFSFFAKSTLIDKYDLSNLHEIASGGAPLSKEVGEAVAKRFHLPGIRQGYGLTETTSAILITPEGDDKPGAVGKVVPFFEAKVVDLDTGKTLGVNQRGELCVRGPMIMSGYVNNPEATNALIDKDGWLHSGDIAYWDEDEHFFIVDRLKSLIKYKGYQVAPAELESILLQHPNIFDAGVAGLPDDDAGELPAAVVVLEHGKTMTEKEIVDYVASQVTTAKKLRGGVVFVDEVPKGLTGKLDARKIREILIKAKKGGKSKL

| SMILES | Potency |
| --- | --- |
| C(=N\Nc1nc2ccccc2[nH]1)/c1ccc2c(c1)OCCO2 | active: 0.757 µM |
| O=C(c1ccco1)N1CCN(Cc2c(F)cccc2Cl)CC1 | inconclusive: 26.9 µM [inhibitor, partial curve, poor fit] |
| COc1cc(C(C)=O)ccc1OCC(=O)OCC(=O)c1cc(C)n(CC2CCCO2)c1C (centres undefined) | inconclusive: 37.9 µM [inhibitor, single point] |
| O=C(Nc1ccccc1C(F)(F)F)c1ncoc1-c1ccco1 | inactive |
| COc1ccc(-c2csc(/C=C/c3ccc4c(c3)OCO4)n2)cc1OC | inactive |
| COc1ccc(N(CC(=O)NCc2ccco2)C(=O)CCC(=O)Nc2nccs2)c(OC)c1 | inconclusive: 37.9 µM [inhibitor, partial curve, poor fit] |
| O=C(CSc1ncn[nH]1)c1cc2ccccc2o1 | inconclusive: 37.9 µM [inhibitor, partial curve, poor fit] |
| CCOC(=O)C1CCN(S(=O)(=O)c2cn(C)c(C)n2)CC1 | inactive |
| Cc1cc(NC(=O)c2ccc3c(c2)N(Cc2cccc(Cl)c2)C(=O)c2ccccc2S3(=O)=O)ccc1Br | inactive |
| COc1ccc2[nH]c(C(=O)NCCCn3ccnc3)cc2c1 | inconclusive: 37.9 µM [inhibitor, partial curve, poor fit] |
| Cc1nn(-c2ccccc2)c(OC(=O)c2ccccc2Br)c1S(=O)(=O)c1ccccc1 | inconclusive: 8.49 µM [inhibitor, partial curve] |
| O=C(Nc1nc(-c2cccs2)c(-c2cccs2)s1)C1CCCC1 | inconclusive: 26.9 µM [inhibitor, single point] |
| O=C(Cc1ccccc1)NN1C(=O)/C(=C/c2ccccc2C(=O)O)SC1=S | inconclusive: 13.5 µM [inhibitor, partial curve] |
| Cc1ccc(C)c(C(=O)CSc2nnnn2C(C)C)c1 | inconclusive: 21.3 µM [inhibitor, single point] |
| O=C1CC(c2c(Cl)cccc2Cl)c2c(ccc3ccccc23)N1 (centres undefined) | inactive |
| CC1=C(C(=O)Nc2ccccc2Cl)C(c2cccc(O)c2)n2ncnc2N1 (centres undefined) | inactive |
| O=C(COC(=O)CNC(=O)c1ccc(Br)cc1)Nc1nnc(-c2ccccc2)o1 | inconclusive: 26.9 µM [inhibitor, partial curve, poor fit] |
| COc1ccc(-n2nc(C(=O)NCC(=O)N(C)Cc3ccccc3)c3ccccc3c2=O)cc1OC | inconclusive: 16.9 µM [inhibitor, partial curve] |
| N#Cc1nc(-c2ccccc2)oc1NCC1CCCO1 (centres undefined) | inactive |
| CCOC(=O)c1c(C)oc2nc(C)nc(NCCc3ccc(OCC)c(OCC)c3)c12 | inactive |
| COc1ccc(N2CCN(c3ncnc4c3cnn4-c3ccc(F)cc3)CC2)cc1 | inactive |
| CCN(c1ccccc1)S(=O)(=O)c1c(C)nc2scc(C)n2c1=O | inactive |

| SMILES | Potency |
| --- | --- |
| COc1ccccc1NC(=O)Nc1sccc1-c1nc2ccccc2s1 | inconclusive: 23.9 µM [inhibitor, partial curve] |
| O=C(Nc1ccccc1)c1cc(S(=O)(=O)Nc2cccnc2)ccc1Cl | inconclusive: 37.9 µM [inhibitor, partial curve, poor fit] |
| CC1CCN(S(=O)(=O)c2ccc3c(c2)c(=O)c(C(=O)N2CCN(c4cccc(Cl)c4)CC2)cn3C)CC1 | inactive |
| O=C1c2ccccc2-c2onc3c(Oc4ccccc4)cc(O)c1c23 | inconclusive: 26.9 µM [inhibitor, single point] |
| O=C(C#Cc1ccccc1)Nc1cccc(F)c1 | active: 4.26 µM |
| O=c1c2cc3c(cc2nc2sc(Nc4ccccc4)nn12)OCO3 | active: 3.01 µM |
| COc1ccc(-c2ccc(/C=N/NC(=O)Cc3nnc(N)s3)o2)cc1Cl | inconclusive: 23.9 µM [inhibitor, partial curve] |
| O=C(COc1ccccc1C(=O)O)Nc1nc2ccc([N+](=O)[O-])cc2s1 | inconclusive: 23.9 µM [inhibitor, single point] |
| CC(=O)c1cccc(NC(=O)c2noc3c2CCc2ccccc2-3)c1 | active: 2.39 µM |
| O=C1OCCC1Sc1nc(-c2ccccc2)cs1 (centres undefined) | inconclusive: 19 µM [inhibitor, single point] |
| Cc1ccccc1Cn1c(COc2ccc(Cl)cc2)nc2ccccc21 | inconclusive: 37.9 µM [inhibitor, partial curve, poor fit] |
| C=CCC(CC(O)COCCC)C(=O)NNC(=S)Nc1ccccc1 (centres undefined) | inconclusive: 37.9 µM [inhibitor, single point] |
| CCOC(=O)CSc1nnc(NC(=O)c2cc([N+](=O)[O-])cc([N+](=O)[O-])c2)s1 | inconclusive: 23.9 µM [inhibitor, partial curve, poor fit] |
| CC1C/C(=N\NC(N)=S)c2cc(Cl)ccc2S1 (centres undefined) | inactive |
| O=C1c2ccccc2C(=O)c2c1cccc2N(CCO)CCO | inconclusive: 37.9 µM [inhibitor, partial curve, poor fit] |
| CC1CCN(C(c2ccccc2)c2sc3nc(-c4ccco4)nn3c2O)CC1 (centres undefined) | inconclusive: 26.9 µM [inhibitor, partial curve, poor fit] |
| COC(=O)c1ccccc1NC(=O)Nc1ccc2c(c1)OCO2 | inconclusive: 26.9 µM [inhibitor, partial curve, poor fit] |
| CN1CCc2c(sc(/N=C/c3ccco3)c2C(N)=O)C1 | inconclusive: 30.1 µM [inhibitor, single point] |
| Cc1ccc(Nc2cc(C(=O)NCCc3ccccc3)c3ccccc3n2)c(C)c1 | inconclusive: 10.7 µM [inhibitor, partial curve] |
| CC(=O)Oc1cccc(C(=O)Nc2ccc(NC(=O)c3cccs3)cc2)c1 | inactive |
| Cc1ccc(NC(=O)c2ccccc2OCc2c(C)noc2C)cc1S(=O)(=O)N(C)C | inconclusive: 10.7 µM [inhibitor, partial curve] |
| COCCN(CCOC)S(=O)(=O)c1ccc(/C(O)=C(\C#N)c2nc3ccccc3[nH]2)cc1 | inconclusive: 26.9 µM [inhibitor, single point] |
